Measurements: PubChem BioAssay (Tox21)
Where “and” joins values, the source holds several entries; their conditions need not be identical. Equal values may be shown once. The inconclusive results got no clear call from the source; some entries with a clear call stand among them for comparison. For part of these data: Potencies beside an inconclusive call are fits to weak or partial responses and may not hold up. Calls of active or inactive are those of the source. Unless noted, calls follow the shape of the dose curve; as a rule, active = well fitted curve in the direction sought with a large enough effect in the repeat runs; inconclusive = weak or mixed curves; inactive = no such curve, though single readings can be large; an effect the other way counts as inactive or inconclusive.

Legend:
[1] = target: Nuclear receptor subfamily 1 group I member 3 (Homo sapiens) (UniProt Q14994); assay: qHTS assay to identify small molecule agonists of the constitutive androstane receptor (CAR) signaling pathway (AID 1224839); also: nearly all actives have a fitted effect of over 15% in size
Procedure, shortened: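 Using human hepatoma HepG2 cells engineered with hCAR and a CYP2B6-2.2kb reporter, 15-concentration compound series were incubated 24 h alongside PK11195 at 0.75 uM final, with luminescence quantified afterwards.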

[2] = qHTS assay to identify small molecule antagonists of the estrogen related receptor signaling pathway with the pleiotropic PPARgamma coactivator (PGC) from Tox21 10K library - cell viability counter screen (AID 1224840; active = well fitted cell-killing curve with a large enough effect in the repeat runs, not every such curve was filed as active; inconclusive = weak or mixed curves, or effect the other way; inactive = no such curve, though single readings can be large or run the other way; also: nearly all actives have a fitted effect of over 40% in size)
Procedure, shortened: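 Multiplexed viability counter screen in the PGC/ERR cell line: cells treated with DMSO-dissolved compounds for 17.5 hours at 37 C, then viability measured as CellTiter-Fluor fluorescence.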

[3] = target: Thyrotropin receptor (Homo sapiens) (UniProt P16473); assay: qHTS assay to identify small molecule agonists of the thyroid stimulating hormone receptor (TSHR) signaling pathway (AID 1224843; calls by dose curve; also: nearly all actives have a fitted effect of over 45% in size); settings: TSHR-HEK293 cells, cAMP HTRF, agonist mode, 30 min; activation: at 92.4 µM (top of the series) unless noted
Procedure, shortened: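 Using 15 concentrations per compound in triplicate, cAMP production was monitored in TSHR-HEK293 cells after 30 min compound incubation at RT; HTRF reagents followed, with fluorescence intensity recorded after 1 h.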

[4] = qHTS assay to identify small molecule agonists of the hypoxia (HIF-1) signaling pathway - cell viability counter screen (AID 1224844; calls by dose curve; also: nearly all actives have a fitted effect of over 50% in size)
Procedure, shortened: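 Cytotoxicity was measured in parallel with the HRE-driven beta-lactamase readout: after 17 hrs of compound exposure at 37C, HRE-bla ME-180 cells received CellTiter-Glo and luminescence was recorded 30 min later.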

[5] = qHTS assay to identify small molecule agonists of H2AX (AID 1224845; active = well fitted activation curve with a large enough effect in the signal ratio in the repeat runs, not every such curve was filed as active; inconclusive = weak or mixed curves; the % refers to the signal ratio); settings: CHO-K1 phospho-H2AX Ser139 HTRF, 3 h; series mostly up to 154 µM
Procedure, shortened: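 Wild-type CHO-K1 cells plated overnight, then exposed 3 hr at 37C to compounds at 15 concentrations (0.76% DMSO). Lysed, then HTRF anti-pH2AX(S139)-cryptate/anti-H2AX-d2 detection after 24 hr at room temperature; emissions 665 and 620 nm.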

[6] = qHTS assay to identify small molecule agonists of the hypoxia (HIF-1) signaling pathway (AID 1224846; active = well fitted activation curve with a large enough effect in the signal ratio in the repeat runs, not every such curve was filed as active; inconclusive = weak or mixed curves; the % refers to the signal ratio); settings: HRE-bla ME-180 cells, beta-lactamase ratio, 17 h; activation: at 76.8 µM (top of the series) unless noted
Procedure, shortened: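 Compounds from the Tox21 10K library, dissolved in DMSO, are tested for induction of a hypoxia response element–controlled beta-lactamase reporter in ME-180 cells. Exposure lasts 17 hrs at 37C after a 5 hr settling period, followed by CCF4-AM FRET substrate.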

[7] = qHTS assay to identify small molecule agonists of H2AX - cell viability counter screen (AID 1224847; calls by dose curve; also: nearly all actives have a fitted effect of over 30% in size)
Procedure, shortened: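 After overnight plating of 1000 CHO-K1 cells per well, a 15-concentration compound series was applied for 3 hr at 37C. Luminescence from CellTiter-Glo, read following 30 min at room temperature, reflected cell viability.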

[8] = qHTS assay to identify small molecule antagonists of the estrogen related receptor (ERR) signaling pathway from Tox21 library (AID 1224848); also: nearly all actives have a fitted effect of over 50% in size
Procedure, shortened: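 Tox21 10K compounds in DMSO tested for ERR pathway antagonism in NTP's ERR cell line; 18 h, 37 C exposure; ONE-Glo luminescence.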

[9] = qHTS RealTime-Glo MT Cell Viability Assay in HepG2 cells - 24 hour (AID 1224867); also: nearly all actives have a fitted effect of over 50% in size
Procedure, shortened: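 Luminescence read-out: viable HepG2 cells reduce a prosubstrate to a NanoLuc substrate, giving a signal proportional to live cell number. Reads taken at 0, 8, 16, 24, 32 and 40 h of compound exposure at 37 C.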

[10] = qHTS RealTime-Glo MT Cell Viability Assay in HepG2 cells - 40 hour (AID 1224870); also: nearly all actives have a fitted effect of over 50% in size
Procedure, shortened: (§1)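 HepG2 cells mixed with RealTime-Glo MT reagents (NanoLuc plus cell-permeant prosubstrate) were seeded at 600 cells/well, incubated 5 h at 37 C/5% CO2, then pinned with compounds in DMSO; nonlytic luminescence tracked viability during 40 h treatment.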

[11] = A CellTox Green Cytotoxicity Assay to monitor cytotoxicity in HEK293 cells - 40 hour (AID 1224871); also: nearly all actives have a fitted effect of over 45% in size
Procedure, shortened: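 Cells (HEK293, 600/well) and dye reagent are dispensed together. After 5 h at 37 C, 23 nL compound is pinned in. Plates stay at 37 C for 40 h with fluorescence read at 0h, 8h, 16h, 24h, 32h and 40h.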

[12] = qHTS RealTime-Glo MT Cell Viability Assay in HEK293 cells - 16 hour (AID 1224872); also: nearly all actives have a fitted effect of over 50% in size
Procedure, shortened: (§2)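 Nonlytic real-time viability readout: viable cells convert prosubstrate to NanoLuc substrate, giving luminescence proportional to live cell number. HEK293, 600 cells/well, compound added after 5 h, continuous culture at 37 C.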

[13] = qHTS RealTime-Glo MT Cell Viability Assay in HepG2 cells - 8 hour (AID 1224873); also: nearly all actives have a fitted effect of over 55% in size
Procedure, shortened: as §1

[14] = qHTS RealTime-Glo MT Cell Viability Assay in HEK293 cells - 40 hour (AID 1224874); settings: RealTime-Glo luminescence; max response: stronger effect = lower value; also: nearly all actives have a fitted effect of over 50% in size
Procedure, shortened: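 Real-time viability in HEK293: signal arises when living cells convert a prosubstrate for NanoLuc in the medium, so luminescence tracks viable cell number. Compound (23 nL, DMSO) added 5 h post-seeding; kinetic reads at 0–40 h, 37 C.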

[15] = target: Nuclear receptor subfamily 1 group I member 3 (Homo sapiens) (UniProt Q14994); assay: qHTS assay to identify small molecule antagonists of the constitutive androstane receptor (CAR) signaling pathway (AID 1224838);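 also: HepG2 cells stably expressing hCAR with CYP2B6 luciferase reporter stimulated by CITCO; nearly all actives have a fitted effect of over 40% in size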
Procedure, shortened: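 Antagonist mode used CITCO at a final 50 nM to activate CAR in human hepatoma HepG2 cells carrying stable hCAR and a 2.2 kb CYP2B6 promoter-luciferase construct. Compounds were tested at 15 concentrations over 24 h, with luminescence as the end point.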

[16] = qHTS RealTime-Glo MT Cell Viability Assay in HEK293 cells - 32 hour (AID 1224868); also: nearly all actives have a fitted effect of over 50% in size
Procedure, shortened: as §2
Potency is read from the fitted curve at half-maximal effect; tags tell the direction and shape of the fitted curve or compound fluorescence and quenching.

Sequence of UniProt P16473 (P16473 whole entry, looked up): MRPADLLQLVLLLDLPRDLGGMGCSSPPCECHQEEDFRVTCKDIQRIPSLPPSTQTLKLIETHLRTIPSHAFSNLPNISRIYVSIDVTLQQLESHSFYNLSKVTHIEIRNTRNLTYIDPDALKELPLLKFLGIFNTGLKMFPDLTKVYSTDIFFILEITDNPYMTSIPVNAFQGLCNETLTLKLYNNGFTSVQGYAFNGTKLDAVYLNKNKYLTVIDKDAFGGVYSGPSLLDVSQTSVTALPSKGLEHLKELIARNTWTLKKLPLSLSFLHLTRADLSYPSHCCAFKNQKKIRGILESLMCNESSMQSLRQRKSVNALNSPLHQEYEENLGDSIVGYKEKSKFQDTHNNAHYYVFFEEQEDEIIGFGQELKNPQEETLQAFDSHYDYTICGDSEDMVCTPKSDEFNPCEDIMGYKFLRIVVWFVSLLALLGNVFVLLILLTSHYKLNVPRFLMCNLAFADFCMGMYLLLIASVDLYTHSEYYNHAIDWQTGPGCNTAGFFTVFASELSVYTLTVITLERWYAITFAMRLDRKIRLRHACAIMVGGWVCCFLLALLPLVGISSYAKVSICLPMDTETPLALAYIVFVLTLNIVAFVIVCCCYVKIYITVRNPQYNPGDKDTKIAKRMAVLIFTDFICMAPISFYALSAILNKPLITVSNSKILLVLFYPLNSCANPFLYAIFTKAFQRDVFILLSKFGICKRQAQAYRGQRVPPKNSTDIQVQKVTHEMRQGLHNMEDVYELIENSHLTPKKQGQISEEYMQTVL
Sequence of UniProt Q14994 (Q14994 whole entry, looked up): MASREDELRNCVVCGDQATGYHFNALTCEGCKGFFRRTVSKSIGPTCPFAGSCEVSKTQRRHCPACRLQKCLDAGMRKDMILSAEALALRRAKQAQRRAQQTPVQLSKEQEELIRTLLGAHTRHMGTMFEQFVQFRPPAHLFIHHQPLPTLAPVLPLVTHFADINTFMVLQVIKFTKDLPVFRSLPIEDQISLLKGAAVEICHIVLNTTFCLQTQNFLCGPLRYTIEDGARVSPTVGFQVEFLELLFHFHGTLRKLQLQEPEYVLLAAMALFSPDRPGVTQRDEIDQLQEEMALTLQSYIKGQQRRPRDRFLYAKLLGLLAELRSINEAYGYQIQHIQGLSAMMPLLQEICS

SMILES: Cc1cc(Cl)ccc1OCCCC(=O)O
- Potency [1]: inconclusive: 63.6 µM [activator, partial curve, poor fit]

SMILES: Clc1ccc(C(c2ccc(Cl)cc2)C(Cl)Cl)cc1
- Potency [1]: active: 49.3 µM and active: 21.7 µM
- Potency [2]: inconclusive: 54.5 µM [cytotoxic, partial curve, poor fit]
- Potency [3]: inconclusive: 34.4 µM [inhibitor, partial curve]
- Potency [4]: inconclusive: 62.7 µM [cytotoxic, single point]
- Potency [5]: active: 89.8 µM
- Potency [6]: inconclusive: 55.8 µM and inconclusive: 49 µM [partial curve]
- Potency [7]: inconclusive: 129 µM [cytotoxic, single point]
- Potency [8]: inconclusive: 62.1 µM [inhibitor] and inconclusive: 68.6 µM [inhibitor, single point]
- Potency [9]: inconclusive: 54.9 µM [falling, single point]
- Potency [10]: inconclusive: 54.9 µM [falling, single point]
- Potency [11]: active: 55.8 µM and active: 49 µM
- Potency [12]: active: 44.4 µM and active: 43.6 µM
- Potency [13]: inconclusive: 54.9 µM [falling, single point]
- Potency [14]: active: 49.8 µM and active: 43.6 µM

SMILES: O=S1(=O)OCC2C(CO1)C1(Cl)C(Cl)=C(Cl)C2(Cl)C1(Cl)Cl (centres undefined)
- Potency [15]: inconclusive: 68.6 µM [inhibitor, single point]
- Potency [4]: inconclusive: 54.9 µM [cytotoxic, single point]
- Potency [9]: inconclusive: 49 µM [falling, single point]
- Potency [11]: active: 49 µM
- Potency [12]: active: 19.5 µM
- Potency [13]: inconclusive: 38.9 µM [falling, partial curve]
- Potency [14]: active: 21.9 µM

SMILES: C=CC(=O)[O][Sn]([CH2]CCC)([CH2]CCC)[CH2]CCC
- Potency [15]: active: 0.486 µM
- Potency [3]: inconclusive: 1.72 µM [activator]
- Potency [5]: inconclusive: 0.898 µM [activator, single point]
- Potency [6]: inconclusive: 977 nM [falling, full curve]
- Potency [7]: active: 1.42 µM
- Potency [8]: active: 1.37 µM
- Potency [11]: active: 0.871 µM
- Potency [12]: active: 0.549 µM
- Potency [13]: active: 0.977 µM
- Potency [14]: active: 0.389 µM

SMILES: Cn1c(CCCC(=O)O)nc2cc(N(CCCl)CCCl)ccc21
- Potency [15]: inconclusive: 2.66 µM [inhibitor, full curve]
- Potency [6]: inactive
- Potency [10]: inactive

SMILES: CC(C)c1ccc(OP(=O)(Oc2ccc(C(C)C)cc2)Oc2ccc(C(C)C)cc2)cc1
- Potency [15]: inactive
- Potency [4]: inconclusive: 24.7 µM [cytotoxic, partial curve, poor fit] and inconclusive: 27.5 µM [cytotoxic, partial curve, poor fit]
- Potency [7]: inconclusive: 80.6 µM [cytotoxic, partial curve]
- Potency [16]: inconclusive: 24.7 µM [cytotoxic, full curve] and inconclusive: 19.5 µM [cytotoxic, full curve] and inconclusive: 27.5 µM [cytotoxic, partial curve]
- Potency [12]: inconclusive: 19.5 µM [cytotoxic, full curve] and inconclusive: 24.5 µM [cytotoxic, partial curve]
- Potency [14]: inconclusive: 21.9 µM [cytotoxic, full curve] and inconclusive: 24.5 µM [cytotoxic, partial curve]

SMILES: N#Cc1c2ccccc2cc2ccccc12
- Potency [15]: inconclusive: 21.6 µM [inhibitor, full curve]
- Potency [7]: inconclusive: 28.3 µM [cytotoxic, full curve]

SMILES: ClC1=C(Cl)C2(Cl)C3C(Cl)C=CC3C1(Cl)C2(Cl)Cl (centres undefined)
- Potency [1]: inconclusive: 54.7 µM [activator, partial curve] and inconclusive: 24.3 µM [activator]
- Potency [2]: inconclusive: 61.1 µM [cytotoxic, partial curve]
- Potency [3]: active: 7.73 µM and active: 15.4 µM
- Potency [4]: inconclusive: 55.2 µM [cytotoxic, single point] and inconclusive: 61.6 µM [cytotoxic, single point]
- Potency [5]: inconclusive: 127 µM [activator, single point] and inconclusive: 127 µM [single point]
- Potency [7]: inconclusive: 127 µM [cytotoxic, single point] and active: 113 µM
- Potency [10]: inconclusive: 61.9 µM [falling, partial curve, poor fit]
- Potency [12]: active: 43.8 µM and active: 43.6 µM
- Potency [13]: inconclusive: 55.2 µM [falling, single point] and inconclusive: 54.9 µM [falling, single point]

SMILES: Nc1ccncc1
- Potency [15]: inactive
- Potency [11]: inactive
